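Each compound was tested at five concentrations against cells in 96-well plates for 48 hours. GI50 marks 50% less growth.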 Calls of active or inactive are those of the source. Rule as the data show it: active = GI50 up to about 1.1 µM and inactive = higher. A value given as a limit tells only on which side of the number the result lay.

For the assay, the system named is NCI-H322M. The experiment in a line: NCI tumour cell line growth inhibition, 48 h.
In the case of `C=C(C)C1CC=C(C(=O)O)CC1` (stereo unspecified), the GI50 is inactive: 1460 µM.
Under `Clc1ccccc1NN(Cc1ccncc1)c1ccccc1Cl` stands inactive: 14 µM.
Under `CC(C)(CCc1nc2ccccc2[nH]1)C(=O)O` stands inactive: > 100 µM; under `Nc1ccc2c(c1)N(C(=O)c1cc3cc(NC(=O)c4cc5ccccc5o4)ccc3[nH]1)CC2CCl` (stereo unspecified), active: 0.134 µM; under `CC(=O)c1sc2c(c1OC(=O)c1ccc(Cl)cc1)c(=O)n(-c1ccccc1)c(=S)n2-c1ccccc1`, inactive: 3.49 µM.
Under `C[C@]12CC[C@H]3[C@@H](CC=C4C[C@@H](N5CCCC5)CC[C@@]43C)[C@@H]1C[C@H](N1CCCCC1)[C@@H]2O` stands inactive: 76.6 µM.
Take `CC(C)(C)OC(=O)NCCNC(=O)CN(CC(=O)O)C1CCCCC1N(CC(=O)O)CC(=O)O` (stereo unspecified): the GI50 was inactive: > 100 µM.
Under `O=C(O)CCC[C@]1(O)O[C@@]2(CCCC2=O)[C@]2(O)CCC[C@@]21O` stands inactive: > 100 µM; under `O=C1OC2C(O)COC2(O)C1(O)C(C[N+](=O)[O-])c1ccc(Cl)cc1` (stereo unspecified), inactive: 16.4 µM.
For `CC(=O)NS(=O)(=O)c1ccc(NC(=O)c2c3ccccc3nc3ccccc23)cc1`, the GI50 is inactive: > 100 µM.
With `COc1cc2c(cc1OCCN1CCN(CCOc3cc4c(cc3OC)C(=O)N3CCC[C@H]3C=N4)CC1)N=C[C@@H]1CCCN1C2=O` the figure was inactive: > 67.5 µM.
Take `CCOc1ccc(NC(=O)CCc2nnc(SC)o2)cc1`: the GI50 is inactive: > 100 µM.
Under `COC(=O)/C=C/[C@@H]1[C@H](C)N1S(=O)(=O)c1ccc(C)cc1` (stereo partly specified) stands inactive: > 100 µM; under `CCCCOP1(=O)C=C(C)C(=C(Cl)Cl)C(C)=C1` (stereo unspecified), inactive: 17.7 µM; under `CC(C)[C@H](NC(=O)[C@H](N)Cc1ccc(N(CCCl)CCCl)cc1)C(=O)O`, inactive: > 100 µM.
Under `C/C=C1\CC2C(=O)CCC2C2c3ccccc3OC12` (stereo unspecified) stands inactive: > 100 µM; under `CCCCCC(=O)OC[n+]1ccc2c(C)c3[nH]c4ccccc4c3c(C)c2c1`, active: 0.971 µM; under `O=c1oc2ccccc2c2c1Sc1ccccc1N2`, inactive: 55.3 µM.
With `Cc1c(N)c(C#N)c2n(C)c3ncccc3n2c1=O` the figure was inactive: > 100 µM.
As for `Cc1n[nH]c(=S)n(C)c1=S`, the GI50 was inactive: > 100 µM.
Turning to `CCOC(=O)C1C(=O)CC(C)(O)C(C(=O)OCC)C1c1ccc(O)c(OC)c1` (stereo unspecified), the GI50 is inactive: > 100 µM.
With `CCOC(=O)CCC(NC(=O)OCc1ccccc1)C(=O)NNC(=O)OC(C)(C)C` (stereo unspecified) the figure was inactive: > 100 µM; with `C=C1C(=O)O[C@H]2C[C@@H]1[C@@H](O)[C@H](O)[C@@H](C)CCCC(C)=CCC[C@@]2(C)O`, inactive: > 100 µM.
Under `Cc1cc(C)cc(C(=N)c2ccccc2Cc2cccc3ccccc23)c1` stands inactive: 16.8 µM.
With `CCc1cc2c(oc3c4ccccc4ccc23)c(=O)[nH]1` the figure was inactive: > 10 µM; with `CC[N+](C)(CC)CCC(O)(c1ccccc1)c1ccccc1`, inactive: > 100 µM; with `O=C(O)c1c2c(cc3c1CC(Cc1ccccc1)C3=O)CCC2` (stereo unspecified), inactive: > 100 µM.
As for `Cc1ccc2c(c1C)C(=O)/C(=C/c1ccccc1C(=O)O)C2`, the GI50 is inactive: > 100 µM.
Under `C/C=C(\C)C(=O)OC1CC(OC(C)=O)C2(C(=O)OC)COC3C2C1(C)C1C2(C(=O)OC)OCC1(C3O)C1(O)C3CC(C4(O)C=COC4O3)C1(C)O2` (stereo unspecified) stands inactive: > 100 µM.
Consider `O=c1c2cc(Br)ccc2nc(-c2ccccc2Cl)n1NCC1(O)OCC(O)C(O)C1O` (stereo unspecified), for which the GI50 is inactive: > 100 µM.
With `Cc1ccccc1C1OC(=O)c2ccc3ccccc3c21` (stereo unspecified) the figure was inactive: 3.22 µM.
With `C[C@@]1(O)CC[C@]2(C)C3CCCC3[C@H]12` (stereo partly specified) the figure was inactive: > 100 µM; with `O=C(Nc1cc(Cl)ccc1Cl)c1cc2cccc(Br)c2oc1=O`, inactive: > 100 µM.
Under `Cn1c(-c2cccs2)cc(-c2cccs2)c1-c1cccs1` stands inactive: > 100 µM.
Turning to `COc1ccc2nc3ccc(OC)cc3c([S+]([O-])Cc3ccccc3)c2c1` (stereo unspecified), the GI50 was inactive: 18 µM.
With `CC(=O)N(O)[C@@H]1CC[C@H](n2cnc3c(N)ncnc32)C1` the figure was inactive: > 100 µM.
`CN1/C(=C/C=C/C=C/C=C2C(=O)c3ccccc3C2=O)C(C)(C)c2ccccc21`: the GI50 is inactive: 65 µM.
With `O=[N+]([O-])c1ccc(-n2nnc(C3=NCCN3)c2-c2ccc(Cl)cc2)cc1` the figure was inactive: > 100 µM; with `COc1cc(Br)cc2cc(-c3cn4c(n3)sc3ccccc34)c(=O)oc12`, inactive: 19.4 µM; with `O=C(O)C1OC1(c1cccc(Cl)c1)c1ccccc1Cl` (stereo unspecified), inactive: 42.1 µM.
With `O=C(NCc1ccc2ccc3cccnc3c2n1)c1ccc[n+](Cc2ccccc2)c1` the figure was inactive: 51.5 µM; with `COc1ccc(C(=O)c2sc(N(C)C)nc2-c2ccccc2)cc1`, inactive: 96.2 µM.
On to `COC(=O)[C@@]12CC[C@]1(C(=O)OC)C1C(C)=CC(=O)O[C@@]12C` (stereo partly specified), for which the GI50 is inactive: > 100 µM.
For the compound `O=C1C(=O)N(C(=O)c2ccc(Cl)c(Cl)c2)c2ccccc21`, the GI50 was inactive: > 100 µM.
In the case of `CCN(CC)CCNC(=O)c1cc2cc(NC(=O)c3cc4cc(NC(=O)c5cc6cc([N+](=O)[O-])ccc6[nH]5)ccc4[nH]3)ccc2[nH]1`, the GI50 is inactive: > 100 µM.
With `Cc1cn(CC2=NCC(C)N2)c(=O)[nH]c1=O` (stereo unspecified) the figure was inactive: > 100 µM; with `COc1cc(Nc2nnc3n2S(=O)(=O)c2cc(C)c(Cl)cc2S3)cc(OC)c1`, inactive: 27.5 µM; with `O=C1OC2C=CCC1C2` (stereo unspecified), inactive: > 100 µM.
With `N=CCCN(CCC=N)c1ccc(/C=C2\CN(NC(=O)c3ccc(Cl)cc3)C(c3ccccc3)=N2)cc1` the figure was inactive: > 100 µM; with `CCCc1cn2c(/C=N/N=C(N)N)c(-c3c(OC)ccc(OC)c3[N+](=O)[O-])nc2s1`, inactive: 13.9 µM.
Under `COC1/C=C\C=C(/C)C(=O)NC2=CC(=O)C(N)=C(CC(C)CC(OC)C(O)C(C)C=C(C)C1OC(N)=O)C2=O` (stereo unspecified) stands inactive: 12.3 µM; under `Cc1c[nH]c(C(=O)O)c1-c1ccc2c(-c3ccccc3)nc3ccccc3n12`, inactive: 36.3 µM; under `COc1ccc(NC(C)=O)cc1N1C(=O)/C(=C\c2cc(OC)c(OC)c(OC)c2)SC1c1ccccc1` (stereo unspecified), inactive: 78.7 µM.
Regarding `CCC(CCCN)Nc1cc(OC)cc2cccnc12` (stereo unspecified), the GI50 is inactive: > 100 µM.
Under `CC#CCCCC1(C)CCNC1=S` (stereo unspecified) stands inactive: > 10 µM.
Turning to `N#Cc1c(=O)c2ccccc2n2ccccc12`, the GI50 was inactive: > 100 µM.
Under `Cc1cc(C)c(-n2c(C)c(C)c(C#N)c2N)c(C)c1` stands inactive: 56.5 µM.
With `Clc1ccc(C2N3CCCCC3[C@@H]3c4[nH]c5ccccc5c4CCN23)cc1` (stereo partly specified) the figure was inactive: 65.6 µM; with `COc1cc([C@@H]2c3cc4c(cc3[C@@H](OC3OC5CO[C@@H](c6cccs6)OC5C(O)C3O)[C@H]3COC(=O)[C@H]23)OCO4)cc(OC)c1O` (stereo partly specified), inactive: 2.95 µM; with `Cc1c2c(cc3c1C(=O)C(=O)C1=C3OC[C@@H]1C)C(C)(C)CCC2`, inactive: 14.6 µM.
Regarding `CC1=NN(c2cccc(Cl)c2)C2(C1=Cc1cccs1)C(Cl)C(=O)N2c1nc2ccccc2s1` (stereo unspecified), the GI50 is inactive: 21.9 µM.
Consider `CC(=O)O/N=C(/C)c1ccccc1O`, for which the GI50 was inactive: > 100 µM.
With `Nc1n[n+](CC(=O)c2ccccc2)c2sc(-c3ccccc3)nn12` the figure was inactive: 7.6 µM; with `O=c1[nH]nc(Cc2ccc(Cl)cc2)n1Nc1ccccc1`, inactive: > 100 µM.
Under `CCOC(=O)c1ccc2nc(NC(=O)COC(=O)CSc3nc(C)cc(C)n3)sc2c1` stands inactive: 37 µM; under `COc1ccc(S(=O)(=O)Nc2ccc(-c3csc(N4C(=O)/C(=C/c5ccccc5)N=C4c4ccccc4)n3)cc2)cc1Cl`, inactive: 71.9 µM.
For `O=C1OC(C(O)CO)C(C(O)CO)OC1=O` (stereo unspecified), the GI50 is inactive: > 10 µM.
Under `COC1CC(OC2C(C)OC(OC3C(C)OC(OC4C(C)OC(O[C@H]5CC[C@@]6(C)C(=CC[C@]7(O)[C@@H]6C[C@@H](OC(C)=O)[C@@]6(C)[C@]7(O)CC[C@@]6(O)C(C)=O)C5)CC4OC)CC3OC)CC2OC)OC(C)C1O` (stereo partly specified) stands inactive: > 25 µM.
With `CCSc1nc(N2CCCC2)s[s+]1.[O-][Cl+3]([O-])([O-])[O-]` the figure was inactive: 81.8 µM; with `O=S(=O)(O)c1ccc(/N=N/c2ccc(/N=N/c3c(O)c(S(=O)(=O)O)cc4cc(S(=O)(=O)O)ccc34)cc2)cc1`, inactive: > 100 µM.
With `C[N+](C)(C)C(Cc1c[nH]c(=S)[nH]1)C(=O)O` (stereo unspecified) the figure was inactive: > 100 µM; with `Cc1c(C)c2ccc(O)cc2[nH]c1=O`, inactive: > 100 µM.
`CCSC1=N/C(=C\c2ccco2)C(Nc2ccc(C)cc2)=N1`: the GI50 was inactive: > 100 µM.
Under `Cc1ccc(NC(=O)c2cccc(OP(=O)(O)Nc3ccc(C)cc3)c2)cc1` stands inactive: > 100 µM.
Under `CC(=O)OC12c3ccccc3-c3ccccc3C1C1C(=O)OC(=O)C12` (stereo unspecified) stands inactive: > 10 µM.
With `C[C@@H]1CC[C@@]2(C)OC(c3ccccc3)[C@H](CO)N2C1=O` (stereo partly specified) the figure was inactive: > 100 µM.
Take `CC1=CCC(=O)[C@]2(C)C(CC(=O)O)[C@]3(C)C4=C(C)C(c5ccoc5)C[C@@H]4O[C@@H]3[C@H](O)[C@@H]12` (stereo partly specified): the GI50 was inactive: > 100 µM.
Regarding `COc1cc2c(c(OC)c1OC)-c1ccc(SC)cc1[C@H](OC(=O)c1ccccc1)CC2`, the GI50 is active: 0.104 µM.
With `Cc1c2ccncc2c(C)c2c1[nH]c1ccc(OC(C)C)cc12` the figure was inactive: 1.28 µM; with `COc1ccc2c(=O)cc(-c3ccc(OC)c(OC)c3OC)oc2c1`, inactive: > 100 µM; with `COc1cc(/C=C\c2ccc(OC(C)=O)cc2)cc(OC)c1OC`, active: 0.631 µM.

Values taken from ChEMBL document CHEMBL1201862, “PubChem BioAssay data set” (2004).
